# Measurements taken from article PMC9042921.
# Where two headings read alike, the source gives them in different places. These are yes or no findings as the source states them, for the method shown. In cells and extracts the contact can be indirect. Some results given as binding are weak or reduced against the parent protein; the word gives no strength. For some assays here: Tags and fused reporters may be left off the sequences shown.
# T1: Myc-AKIP1, expressed in HEK293 cells (human) (UniProt Q9NQ31)
# T1 sequence: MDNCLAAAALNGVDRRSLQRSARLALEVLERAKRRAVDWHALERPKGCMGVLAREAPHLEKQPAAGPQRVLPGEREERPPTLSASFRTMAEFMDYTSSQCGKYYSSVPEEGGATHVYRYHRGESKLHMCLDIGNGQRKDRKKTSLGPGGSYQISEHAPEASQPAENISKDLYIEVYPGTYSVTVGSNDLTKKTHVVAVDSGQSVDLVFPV
# B1: endogenous AKIP1 (A kinase interacting protein 1) of HepG2 cells (protein, UniProt Q9NQ31 1-210)
# chain: T1 sequence
# B2: Myc-AKIP1, expressed in HEK293 cells (protein, UniProt Q9NQ31 1-210)
# chain: T1 sequence
# How the values were obtained:
# [1] = biological target: endogenous CREB1 of HepG2 cells (human (endogenous in HepG2)) (UniProt P16220); assay: co-IP
# [2] = biological target: endogenous CREB1 of HepG2 cells (human (endogenous in HepG2)) (UniProt P16220); assay: co-sedimentation
# [3] = biological target: L (large protein, viral RNA polymerase) of the EBOV minigenome (trVLPs) system, from pCAGGS-L (Ebola virus (EBOV, Zaire ebolavirus)) (UniProt Q05318); assay: proximity ligation
# [4] = biological target: endogenous CREB1 of HepG2 cells (human (endogenous in HepG2)) (UniProt P16220); assay: proximity ligation
# [5] = biological target: Flag-VP35 (EBOV VP35), expressed in HEK293 cells (Ebola virus (EBOV, Zaire ebolavirus)) (UniProt Q05127); assay: co-IP
# [6] = biological target: T1, Myc-AKIP1, expressed in HEK293 cells (human); assay: co-IP
# Flag-cGAS [7] = biological target: Flag-cGAS (UniProt Q8N884); assay: co-IP; control pair G3BP1 and cGAS, lysate with RNase treatment (Supplementary Fig. 1e, not shown)
# Flag-cGAS [8] = biological target: Flag-cGAS (UniProt Q8N884); assay: co-IP; control pair G3BP1 and cGAS, lysate without RNase treatment (Supplementary Fig. 1e, not shown)
# [9] = biological target: Flag-VP35 (EBOV VP35), expressed in HepG2 cells (Ebola virus (EBOV, Zaire ebolavirus)) (UniProt Q05127); assay: co-IP
# [10] = biological target: VP35 of the EBOV minigenome (trVLPs) system, from pCAGGS-VP35 (Ebola virus (EBOV, Zaire ebolavirus)) (UniProt Q05127); assay: co-IP
# [11] = biological target: GFP-VP35 (EBOV VP35), expressed in HepG2 cells (Ebola virus (EBOV, Zaire ebolavirus)) (UniProt Q05127); assay: proximity ligation
# [12] = biological target: VP35 of the EBOV minigenome (trVLPs) system, from pCAGGS-VP35 (Ebola virus (EBOV, Zaire ebolavirus)) (UniProt Q05127); assay: proximity ligation
# [13] = biological target: viral VP35 in HepG2 cells infected with live EBOV (strain Mayinga) (Zaire EBOV (strain Mayinga)) (UniProt Q05127); assay: proximity ligation
# [14] = biological target: Flag-VP35 (EBOV VP35), expressed in HEK293 cells (Ebola virus (EBOV, Zaire ebolavirus)) (UniProt Q05127); assay: co-IP; remark: listed apart in the source
# [15] = biological target: VP35 of Reston virus (RESTV) (Reston virus (RESTV)) (UniProt Q8JPY0); assay: co-IP
molecule,measurement,setting,value
"VP35 of the EBOV minigenome (trVLPs) system, from pCAGGS-VP35 (from UniProt Q05127 1-340)",binding,[1],binds
same,binding,[2],binds
same,binding,[3],binds
same,binding,[4],binds
Myc-AKIP1 C-terminal region (101-210) (from UniProt Q9NQ31 101-210) (domain or fragment),binding,[5],binds
"Flag-VP35 (EBOV VP35), expressed in HEK293 cells (from UniProt Q05127 1-340)",binding,[6],binds
"L (large protein, viral RNA polymerase) of the EBOV minigenome (trVLPs) system, from pCAGGS-L (from UniProt Q05318 1-2212) (enzyme)",binding,[1],binds
GFP-G3BP1 (from UniProt Q13283 1-466),binding,Flag-cGAS [7],no binding (condition: with RNase treatment)
same,binding,Flag-cGAS [8],binds
"NP (nucleoprotein) of the EBOV minigenome (trVLPs) system, from pCAGGS-NP (from UniProt P18272 1-739)",binding,[1],binds
same,binding,[2],binds
same,binding,[4],binds
Myc-AKIP1 N-terminal region (1-100) (from UniProt Q9NQ31 1-100) (domain or fragment),binding,[5],no binding
B1,binding,[9],binds
same,binding,[10],binds
same,binding,[11],binds
same,binding,[12],binds
same,binding,[13],binds
B2,binding,[14],binds
same,binding,[15],no binding
